For 5 molecules, TGI and GI50 results are on record in PubChem BioAssay (NCI).

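Five compound concentrations were applied to cells in 96-well plates for 48 hours; endpoints were derived by simple linear interpolation of the resulting dose-response curve. At the GI50, growth is halved.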 For part of its entries the source gives two or more results. The other results are left out here. The source may hold further records. For some of these results: Results that share an entry are repeated measurements in other runs, samples, wells, individuals or studies. Records carry a tag for their origin. Letters hold for one entry only.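 TGI denotes the concentration required for complete inhibition of growth.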 For some of these results: The tests behind the records often covered other concentration ranges, not given here; a value can be the end of its range. Some results are limits rather than exact numbers.

Test systems include SF-268 CNS; NCI-H226 lung; SNB-75 CNS; HL-60(TB) leukemia; UO-31 renal; CCRF-CEM leukemia; OVCAR-4 ovarian; UACC-257 melanoma; HT29 colon; MDA-MB-435; SR leukemia; U251 CNS; SK-MEL-28 melanoma; DU-145 prostate; HOP-92 NSCLC; HCT-116 colon; RPMI-8226 leukemia; LOX IMVI melanoma; NCI-H23 lung; SK-MEL-2 melanoma; KM12 colon; MALME-3M melanoma; UACC-62 melanoma; SK-MEL-5 melanoma; SF-295 CNS; K-562 leukemia; HCT-15 colon; T-47D breast; MOLT-4 leukemia.

Holding throughout (experiment): growth of human tumour cells (NCI), 48 h

With `O=[N+]([O-])c1ccc(C(Cl)C(Cl)c2ccc(C(Cl)C(Cl)c3ccc([N+](=O)[O-])cc3[N+](=O)[O-])cc2)c([N+](=O)[O-])c1` (centres undefined), the TGI in the experiment on SF-268 CNS was 45.2 µM and 3.97 µM; with NCI-H226 lung it was 7.33 µM and 605 nM; with SNB-75 CNS, > 62 µM and 3.72 µM; in the experiment on HL-60(TB) leukemia, > 62 µM and 309 nM; with UO-31 renal, 10.3 µM and 957 nM.
On to `CCc1cnn2c(NCc3ccc[n+]([O-])c3)cc(N3CCCC[C@H]3CCO)nc12`, for which the TGI was < 10 nM [sample A, 1 test] and > 10 µM [sample B, mean of 2 tests] in the experiment with CCRF-CEM leukemia; 106 nM [sample A, mean of 2 tests] and 1.53 µM [sample B, mean of 2 tests] in the experiment with OVCAR-4 ovarian; 38.2 nM [sample A, mean of 2 tests] and 445 nM [sample B, mean of 2 tests] with UACC-257 melanoma; 539 nM [sample A, mean of 2 tests] and > 10 µM [sample B, mean of 2 tests] in the experiment on HT29 colon; 1.09 µM [sample A, mean of 2 tests] and 29 nM [sample B, mean of 2 tests] in the experiment on MDA-MB-435.
Take `COc1cc(/C=C2\CCC/C(=C\c3ccc(O)c(OC)c3)C2=O)ccc1O`: the TGI with MDA-MB-435 is 8.75 µM [sample A] and > 91.3 µM [sample B]; in the experiment with SR leukemia it was > 100 µM [sample A] and 5.72 µM [sample B].
Consider `COc1cccc(-c2cc(=O)c3cc(N4CCOCC4)ccc3[nH]2)c1`, for which the TGI with U251 CNS is 2.58 µM and > 100 µM; in the experiment with SK-MEL-28 melanoma, 433 nM and > 100 µM; in the experiment on DU-145 prostate it was 855 nM and > 100 µM; in the experiment with HOP-92 NSCLC, 998 nM and > 100 µM; with HCT-116 colon it was 933 nM and > 100 µM; in the experiment on RPMI-8226 leukemia, 7.98 µM and 589 nM. In addition, the TGI is 2.23 µM and > 100 µM in the experiment with LOX IMVI melanoma; 423 nM and > 100 µM in the experiment with NCI-H23 lung; 4.5 µM and > 100 µM with SK-MEL-2 melanoma; 188 nM and > 100 µM with NCI-H226 lung; 1.27 µM and > 100 µM with KM12 colon; 260 nM and > 100 µM in the experiment with MALME-3M melanoma. In addition, the TGI was 807 nM and > 100 µM in the experiment on UACC-62 melanoma; 261 nM and > 100 µM in the experiment on SK-MEL-5 melanoma; 314 nM and > 100 µM in the experiment with SF-295 CNS.
Take `CC(C)(C)c1cc(NC(=O)Nc2ccc(-c3cn4c(n3)sc3cc(OCCN5CCOCC5)ccc34)cc2)no1`: the GI50 in the experiment with K-562 leukemia is 258 nM [sample A, mean of 2 tests] and > 10 µM [sample B, 1 test]; in the experiment on HCT-15 colon, 14.2 µM [sample A, mean of 2 tests] and 811 nM [sample B, mean of 2 tests] and > 10 µM [sample C, 1 test]; in the experiment with NCI-H23 lung, 10.7 µM [sample A, mean of 2 tests] and 605 nM [sample B, mean of 2 tests] and > 10 µM [sample C, 1 test]; with SR leukemia, 9.86 µM [sample A, mean of 2 tests] and 421 nM [sample B, mean of 2 tests] and 1.51 µM [sample C, 1 test]; with MOLT-4 leukemia it was 24.1 µM [sample A, 1 test] and 355 nM [sample B, mean of 2 tests] and 1.47 µM [sample C, 1 test]. In addition, the TGI with RPMI-8226 leukemia is 26.9 µM [sample A, 1 test] and 2.32 µM [sample B, mean of 2 tests] and > 10 µM [sample C, 1 test]; in the experiment with T-47D breast, 13.9 µM [sample A, 1 test] and 739 nM [sample B, mean of 2 tests] and 780 nM [sample C, 1 test].
